Test results from article PMC4402527.
Substitutions are numbered along the chain they refer to. No constants are given. Whether binding was seen depends on the method and setting. In cells and extracts the contact can be indirect. Some results given as binding are weak or reduced against the parent protein; the word gives no strength. Sequences can lack the tags named with a protein.

Sequences of proteins named here, by UniProt entry; tags and fusion partners are left off.
UniProt P60842: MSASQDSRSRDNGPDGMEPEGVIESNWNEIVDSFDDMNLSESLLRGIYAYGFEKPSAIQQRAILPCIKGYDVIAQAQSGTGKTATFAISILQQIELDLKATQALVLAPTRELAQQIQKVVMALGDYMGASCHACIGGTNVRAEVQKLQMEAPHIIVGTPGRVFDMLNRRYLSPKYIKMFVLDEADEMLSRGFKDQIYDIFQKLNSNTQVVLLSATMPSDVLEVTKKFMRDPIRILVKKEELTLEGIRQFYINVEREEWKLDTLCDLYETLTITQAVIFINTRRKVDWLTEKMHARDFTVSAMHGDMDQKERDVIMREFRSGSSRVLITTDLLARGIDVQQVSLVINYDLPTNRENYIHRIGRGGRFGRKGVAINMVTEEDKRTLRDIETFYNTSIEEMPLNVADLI
UniProt P55884: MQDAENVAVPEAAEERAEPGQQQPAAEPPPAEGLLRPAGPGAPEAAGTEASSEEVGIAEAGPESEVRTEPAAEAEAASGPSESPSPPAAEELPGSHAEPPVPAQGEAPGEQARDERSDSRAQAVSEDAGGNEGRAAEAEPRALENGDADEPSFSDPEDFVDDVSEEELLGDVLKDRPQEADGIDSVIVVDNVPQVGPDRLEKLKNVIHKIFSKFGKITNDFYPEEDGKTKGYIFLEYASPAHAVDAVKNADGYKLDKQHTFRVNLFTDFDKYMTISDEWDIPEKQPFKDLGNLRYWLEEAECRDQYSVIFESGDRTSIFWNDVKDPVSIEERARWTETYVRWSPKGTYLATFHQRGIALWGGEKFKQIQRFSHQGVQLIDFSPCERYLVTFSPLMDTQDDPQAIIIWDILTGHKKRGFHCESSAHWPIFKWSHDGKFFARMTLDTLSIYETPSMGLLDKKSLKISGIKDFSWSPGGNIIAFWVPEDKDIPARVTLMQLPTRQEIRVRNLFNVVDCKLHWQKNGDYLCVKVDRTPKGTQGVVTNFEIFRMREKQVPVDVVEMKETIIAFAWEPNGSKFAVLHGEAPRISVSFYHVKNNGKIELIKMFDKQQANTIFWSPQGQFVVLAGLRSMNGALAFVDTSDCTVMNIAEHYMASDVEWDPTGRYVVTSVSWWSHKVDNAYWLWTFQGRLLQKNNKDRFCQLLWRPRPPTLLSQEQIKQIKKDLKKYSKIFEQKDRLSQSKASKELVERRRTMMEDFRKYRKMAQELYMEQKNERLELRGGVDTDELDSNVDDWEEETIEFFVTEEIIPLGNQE

Tests used:
Assay in all cases: co-IP; HEK293T transfected 24 h with Flag-tagged DAP5 constructs; lysis in buffer B (20 mM HEPES-KOH pH 7.6, 100 mM KCl, 0.5 mM EDTA, 0.4% NP-40, 20% glycerol); anti-Flag-conjugated beads, elution with Flag peptide; western blot of endogenous factors
[1] = biological target: T1, Flag-DAP5 (wild type) (human) (UniProt P78344)
T1 sequence: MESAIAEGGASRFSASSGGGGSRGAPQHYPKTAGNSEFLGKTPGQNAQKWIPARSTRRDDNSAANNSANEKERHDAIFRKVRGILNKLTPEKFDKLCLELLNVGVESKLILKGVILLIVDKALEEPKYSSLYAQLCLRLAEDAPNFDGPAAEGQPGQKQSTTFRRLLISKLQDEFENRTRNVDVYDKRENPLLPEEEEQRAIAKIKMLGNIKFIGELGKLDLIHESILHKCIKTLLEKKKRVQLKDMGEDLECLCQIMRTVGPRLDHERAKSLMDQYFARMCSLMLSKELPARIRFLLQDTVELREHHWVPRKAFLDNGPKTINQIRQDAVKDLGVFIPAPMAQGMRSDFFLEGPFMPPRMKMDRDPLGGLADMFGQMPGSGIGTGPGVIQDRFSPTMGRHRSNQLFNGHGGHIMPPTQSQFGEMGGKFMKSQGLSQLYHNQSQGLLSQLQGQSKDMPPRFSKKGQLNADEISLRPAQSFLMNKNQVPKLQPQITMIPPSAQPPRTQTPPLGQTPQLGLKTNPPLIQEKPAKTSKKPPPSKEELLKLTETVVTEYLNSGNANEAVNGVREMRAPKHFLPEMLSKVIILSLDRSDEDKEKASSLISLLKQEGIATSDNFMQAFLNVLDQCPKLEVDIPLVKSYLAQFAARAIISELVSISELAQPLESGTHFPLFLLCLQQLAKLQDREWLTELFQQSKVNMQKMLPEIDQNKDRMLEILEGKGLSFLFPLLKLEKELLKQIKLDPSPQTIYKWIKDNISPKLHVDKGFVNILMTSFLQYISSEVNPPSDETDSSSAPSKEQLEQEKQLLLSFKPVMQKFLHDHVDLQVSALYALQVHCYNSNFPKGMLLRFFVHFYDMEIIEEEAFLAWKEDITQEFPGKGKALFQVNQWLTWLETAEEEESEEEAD

Flag-DAP5 E862K (human) = biological target: T2, Flag-DAP5 E862K (human) (UniProt P78344)
T2 sequence: T1 sequence with E862K

Flag-DAP5 E862Q (human) = biological target: T3, Flag-DAP5 E862Q (human) (UniProt P78344)
T3 sequence: T1 sequence with E862Q

Measured: binding

eIF4AI (from UniProt P60842 1-406)
binds: all assays above

eIF3S9 (from UniProt P55884 1-814)
binds: all assays above
